Here are results for 20 molecules from publication PMC9911399, “Two distinct binding modes provide the RNA-binding protein RbFox with extraordinary sequence specificity”.

T1: RBFOX1 RRM RbFoxmut (Fox-RRM*) (Homo sapiens, UniProt Q9NWB1 109-208, R118D;E147R;N151S;E152T)
T1 sequence: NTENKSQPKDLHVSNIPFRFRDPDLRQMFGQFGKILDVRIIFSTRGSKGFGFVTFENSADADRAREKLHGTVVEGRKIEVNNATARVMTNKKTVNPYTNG

B1: GAUGAUU (DNA:RNA)
RNA: GGGAGACCGGAAUUCAGAUUGUCCGAUGAUUUUAAAUCCCGUCGUAGCCACCA
DNA 1: CAATCTGAATTCCGGTCTCCC
DNA 2: TGGTGGCTACGACGGGATT
B2: AGGAGGG (DNA:RNA)
RNA: GGGAGACCGGAAUUCAGAUUGUCCAGGAGGGUUAAAUCCCGUCGUAGCCACCA
DNA 1: CAATCTGAATTCCGGTCTCCC
DNA 2: TGGTGGCTACGACGGGATT
B3: GCCCAAA (DNA:RNA)
RNA: B1 RNA with A26C, U27C, G28C, U30A, U31A
DNA 1: CAATCTGAATTCCGGTCTCCC
DNA 2: TGGTGGCTACGACGGGATT
B4: AAGAUGC (DNA:RNA)
RNA: B2 RNA with G26A, G29U, G31C
DNA 1: CAATCTGAATTCCGGTCTCCC
DNA 2: TGGTGGCTACGACGGGATT
B5: UCCUACU (DNA:RNA)
RNA: B1 RNA with G25U, A26C, U27C, G28U, U30C
DNA 1: CAATCTGAATTCCGGTCTCCC
DNA 2: TGGTGGCTACGACGGGATT
B6: UCGAUCA (DNA:RNA)
RNA: B2 RNA with A25U, G26C, G29U, G30C, G31A
DNA 1: CAATCTGAATTCCGGTCTCCC
DNA 2: TGGTGGCTACGACGGGATT
B7: ACAGCAA (DNA:RNA)
RNA: B2 RNA with G26C, G27A, A28G, G29C, G30A, G31A
DNA 1: CAATCTGAATTCCGGTCTCCC
DNA 2: TGGTGGCTACGACGGGATT
B8: AUCGAGA (DNA:RNA)
RNA: B2 RNA with G26U, G27C, A28G, G29A, G31A
DNA 1: CAATCTGAATTCCGGTCTCCC
DNA 2: TGGTGGCTACGACGGGATT
B9: UCGCUCA (DNA:RNA)
RNA: B2 RNA with A25U, G26C, A28C, G29U, G30C, G31A
DNA 1: CAATCTGAATTCCGGTCTCCC
DNA 2: TGGTGGCTACGACGGGATT
B10: UAUAUCU (DNA:RNA)
RNA: B1 RNA with G25U, G28A, A29U, U30C
DNA 1: CAATCTGAATTCCGGTCTCCC
DNA 2: TGGTGGCTACGACGGGATT
B11: ACAUAAG (DNA:RNA)
RNA: B2 RNA with G26C, G27A, A28U, G29A, G30A
DNA 1: CAATCTGAATTCCGGTCTCCC
DNA 2: TGGTGGCTACGACGGGATT
B12: CGGAUAA (DNA:RNA)
RNA: B2 RNA with A25C, G29U, G30A, G31A
DNA 1: CAATCTGAATTCCGGTCTCCC
DNA 2: TGGTGGCTACGACGGGATT
B13: CUGGAUC (DNA:RNA)
RNA: B1 RNA with G25C, A26U, U27G, U31C
DNA 1: CAATCTGAATTCCGGTCTCCC
DNA 2: TGGTGGCTACGACGGGATT
B14: ACUCACU (DNA:RNA)
RNA: B1 RNA with G25A, A26C, G28C, U30C
DNA 1: CAATCTGAATTCCGGTCTCCC
DNA 2: TGGTGGCTACGACGGGATT
B15: AUUCCGA (DNA:RNA)
RNA: B2 RNA with G26U, G27U, A28C, G29C, G31A
DNA 1: CAATCTGAATTCCGGTCTCCC
DNA 2: TGGTGGCTACGACGGGATT
B16: UUAUCGA (DNA:RNA)
RNA: B2 RNA with A25U, G26U, G27A, A28U, G29C, G31A
DNA 1: CAATCTGAATTCCGGTCTCCC
DNA 2: TGGTGGCTACGACGGGATT
B17: ACUCUGU (DNA:RNA)
RNA: B2 RNA with G26C, G27U, A28C, G29U, G31U
DNA 1: CAATCTGAATTCCGGTCTCCC
DNA 2: TGGTGGCTACGACGGGATT
B18: UAUUAGA (DNA:RNA)
RNA: B1 RNA with G25U, G28U, U30G, U31A
DNA 1: CAATCTGAATTCCGGTCTCCC
DNA 2: TGGTGGCTACGACGGGATT
B19: GACUAAG (DNA:RNA)
RNA: B1 RNA with U27C, G28U, U30A, U31G
DNA 1: CAATCTGAATTCCGGTCTCCC
DNA 2: TGGTGGCTACGACGGGATT
B20: UGACGCC (DNA:RNA)
RNA: B2 RNA with A25U, G27A, A28C, G30C, G31C
DNA 1: CAATCTGAATTCCGGTCTCCC
DNA 2: TGGTGGCTACGACGGGATT

Changes are numbered by the printed parent chain; changes in the protein carry UniProt numbers. Some of the results follow.

This experiment deals with T1, RBFOX1 RRM RbFoxmut (Fox-RRM*). Nature of the experiment: EMSA; HiTS-Eq, 1 nM pool, 10 min; buffer printed only for the single-RNA assays: 10 mM Tris pH 7.5, 150 mM NaCl, 3.4 mM EDTA, 0.001% NP-40, 30 C. The conditions noted are these: tags: His6 N-terminal (pET28a); label: 5' 32P. In outline:
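Purified RbFox RRM (wild type or mutant) was equilibrated for 10 min in 50 µL with 1 nM of a 5′-radiolabelled pool of RNA with 7 randomized nucleotides, its flanks annealed to DNA oligonucleotides, across increasing protein concentrations. Free RNA was separated by 8% native PAGE, excised, reverse-transcribed, PCR-barcoded and sequenced on an Illumina HiSeq 2500. Relative association constants came from read-count changes of each variant against the control reaction, normalised to the cognate motif.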
On the technique in general: Mobility shift assays separate free from complexed probe on a gel.
Turning to B1, the binding signal is 0.084 KA relative to UGCAUGU. With B2, the binding signal is 0.0885 KA relative to UGCAUGU.

With B3, the binding signal is 0.0845 KA relative to UGCAUGU. Regarding B4, the binding signal is 0.0736 KA relative to UGCAUGU. Regarding B5, the binding signal was 0.0965 KA relative to UGCAUGU.

For B6, the binding signal is 0.079 KA relative to UGCAUGU. Turning to B7, the binding signal was 0.0934 KA relative to UGCAUGU. As to B8, the binding signal was 0.113 KA relative to UGCAUGU.

With B9, the binding signal was 0.0755 KA relative to UGCAUGU. Regarding B10, the binding signal is 0.0667 KA relative to UGCAUGU.

Regarding B11, the binding signal was 0.143 KA relative to UGCAUGU.

Consider B12, for which the binding signal was 0.0883 KA relative to UGCAUGU. As to B13, the binding signal was 0.274 KA relative to UGCAUGU. In the case of B14 it was 0.0861 KA relative to UGCAUGU; in that of B15, 0.0701 KA relative to UGCAUGU. Regarding B16, the binding signal was 0.0615 KA relative to UGCAUGU. On to B17, for which the binding signal was 0.0734 KA relative to UGCAUGU. For the molecule B18, the binding signal is 0.0589 KA relative to UGCAUGU. Take B19: the binding signal is 0.101 KA relative to UGCAUGU.

Take B20: the binding signal is 0.114 KA relative to UGCAUGU.
